# Residue numbers refer to the chain shown, from its start. Names and notes keep the numbering of the source. These are yes or no findings as the source states them, for the method shown. Binding seen in cells or lysates may run through a third protein. Some entries that bind do so weakly or less than the wild type. For part of these data: Tags and fused reporters may be left off the sequences shown.
# By UniProt entry, the sequences of proteins in these tests, tags left out. Where a name states a change or a piece, a line headed by the entry shows the natural chain unless it says otherwise.
# UniProt Q13309: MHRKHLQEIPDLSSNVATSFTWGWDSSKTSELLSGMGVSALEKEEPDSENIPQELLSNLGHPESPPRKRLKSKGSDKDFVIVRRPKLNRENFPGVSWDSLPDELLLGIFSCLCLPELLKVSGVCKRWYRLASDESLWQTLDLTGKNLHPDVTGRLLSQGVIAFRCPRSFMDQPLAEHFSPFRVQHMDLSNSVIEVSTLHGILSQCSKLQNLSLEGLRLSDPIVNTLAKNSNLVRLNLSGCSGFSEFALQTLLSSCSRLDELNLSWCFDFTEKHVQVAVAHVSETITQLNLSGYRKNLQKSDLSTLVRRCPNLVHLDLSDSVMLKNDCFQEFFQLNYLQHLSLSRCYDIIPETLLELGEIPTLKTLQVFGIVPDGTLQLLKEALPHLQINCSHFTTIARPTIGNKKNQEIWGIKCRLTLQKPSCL
# UniProt Q9HCP0: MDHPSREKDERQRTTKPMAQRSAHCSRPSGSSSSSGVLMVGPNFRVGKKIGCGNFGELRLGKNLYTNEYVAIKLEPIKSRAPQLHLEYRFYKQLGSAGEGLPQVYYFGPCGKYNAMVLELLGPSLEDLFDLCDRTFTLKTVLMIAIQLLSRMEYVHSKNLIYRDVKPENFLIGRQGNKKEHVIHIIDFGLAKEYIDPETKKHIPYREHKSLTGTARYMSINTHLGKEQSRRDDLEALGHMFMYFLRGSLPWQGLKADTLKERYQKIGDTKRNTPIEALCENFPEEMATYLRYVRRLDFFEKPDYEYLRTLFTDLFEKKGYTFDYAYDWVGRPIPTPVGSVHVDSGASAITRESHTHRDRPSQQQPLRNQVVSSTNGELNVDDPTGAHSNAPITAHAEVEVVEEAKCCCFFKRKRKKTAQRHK
# UniProt P48729: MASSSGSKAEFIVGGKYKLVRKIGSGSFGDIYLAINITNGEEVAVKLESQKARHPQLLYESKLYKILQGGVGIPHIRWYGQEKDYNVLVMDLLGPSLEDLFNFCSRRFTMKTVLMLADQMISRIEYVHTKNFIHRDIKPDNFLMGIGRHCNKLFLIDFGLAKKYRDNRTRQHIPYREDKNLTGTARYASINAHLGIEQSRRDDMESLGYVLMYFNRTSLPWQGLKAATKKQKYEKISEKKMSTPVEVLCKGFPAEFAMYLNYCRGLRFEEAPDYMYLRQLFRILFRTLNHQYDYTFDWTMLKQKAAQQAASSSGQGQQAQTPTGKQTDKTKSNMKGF
# UniProt P48730: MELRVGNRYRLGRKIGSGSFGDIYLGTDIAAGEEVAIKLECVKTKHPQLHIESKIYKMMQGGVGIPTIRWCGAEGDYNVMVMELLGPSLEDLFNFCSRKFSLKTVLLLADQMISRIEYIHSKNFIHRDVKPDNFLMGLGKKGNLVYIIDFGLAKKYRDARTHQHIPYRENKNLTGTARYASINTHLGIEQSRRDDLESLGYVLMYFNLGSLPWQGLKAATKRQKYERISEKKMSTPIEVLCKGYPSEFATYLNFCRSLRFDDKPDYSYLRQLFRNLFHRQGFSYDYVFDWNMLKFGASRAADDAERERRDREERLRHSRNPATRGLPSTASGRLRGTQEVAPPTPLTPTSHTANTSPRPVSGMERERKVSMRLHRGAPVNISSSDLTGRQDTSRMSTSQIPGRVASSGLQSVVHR
# UniProt P49674: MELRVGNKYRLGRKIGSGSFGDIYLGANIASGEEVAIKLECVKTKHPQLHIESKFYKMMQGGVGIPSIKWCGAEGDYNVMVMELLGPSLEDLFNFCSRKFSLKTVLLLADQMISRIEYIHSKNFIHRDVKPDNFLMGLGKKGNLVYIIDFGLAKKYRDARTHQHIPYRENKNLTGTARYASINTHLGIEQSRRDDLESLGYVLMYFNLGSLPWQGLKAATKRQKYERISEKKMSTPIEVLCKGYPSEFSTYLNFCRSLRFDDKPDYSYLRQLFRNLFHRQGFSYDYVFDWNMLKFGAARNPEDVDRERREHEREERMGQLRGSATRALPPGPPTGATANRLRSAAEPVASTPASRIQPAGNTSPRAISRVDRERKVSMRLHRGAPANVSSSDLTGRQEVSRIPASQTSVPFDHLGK
# B1: AES-V5 (V5-tagged wild-type amino-terminal enhancer of split) (protein, UniProt Q08117 1-197)
# chain: MMFPQSRHSGSSHLPQQLKFTTSDSCDRIKDEFQLLQAQYHSLKLECDKLASEKSEMQRHYVMYYEMSYGLNIEMHKQAEIVKRLNGICAQVLPYLSQEHQQQVLGAIERAKQVTAPELNSIIRQQLQAHQLSQLQALALPLTPLPVGLQPPSLPAVSAGTGLLSLSALGSQAHLSKEDKNGHDGDTHQEDDGEKSD
# B2: GFP tagged wild-type AES, full length (protein, UniProt Q08117 1-197)
# chain: B1 chain
# B3: AES-V5 S121A mutant (protein, UniProt Q08117 1-197)
# chain: B1 chain with S121A
# Key:
# [1] = biological target: T1, AES (endogenous) (human (endogenous in HCT116)) (UniProt Q08117); assay: co-IP; endogenous proteins; HCT116 lysate (HT29 too in Figure 4B); IP with anti-AES antibody or IgG and protein A/G agarose at 4 °C; immunoblot
# T1 sequence: B1 chain
# [2] = biological target: Flag-SKP2 (Flag-tagged S phase kinase-associated protein 2) (UniProt Q13309); assay: condition: only cells depleted of CK1δ/ε by shRNA lentivirus; co-IP; HEK293T cells infected with shCK1δ/ε-1 or shCK1δ/ε-2 lentivirus, then transfected; IP with anti-Flag M2 beads
# [3] = biological target: Flag-CK1γ1 (human) (UniProt Q9HCP0); assay: co-IP; HEK293T cells co-transfected; lysis in 20 mM Tris-HCl pH7.4, 150 mM NaCl, 1 mM EDTA, 1 mM EGTA, 1% Triton X-100; IP with anti-Flag M2 affinity gel or anti-V5 agarose at 4 °C; immunoblot; AES-V5 with Flag-SKP2 also tested with co-expressed kinase-dead dominant negative CK1δ/ε (interaction dramatically reduced)
# [4] = biological target: Flag-CK1α (human) (UniProt P48729); assay: as above
# [5] = biological target: Flag-CK1δ (human) (UniProt P48730); assay: as above
# [6] = biological target: Flag-CK1ε (human) (UniProt P49674); assay: as above
# [7] = biological target: Flag-SKP2 (Flag-tagged S phase kinase-associated protein 2) (UniProt Q13309); assay: as above
# [8] = biological target: Flag-SKP2 (Flag-tagged S phase kinase-associated protein 2) (UniProt Q13309); assay: condition: only cells treated with 0.25 μM IC261 or 2 μM PF670462 for 24 h; co-IP; HEK293T cells transfected, then treated with 0.25 μM IC261 or 2 μM PF670462 for 24 h; IP with anti-Flag M2 beads
Molecule,binding [1],binding [2],binding [3],binding [4],binding [5],binding [6],binding [7],binding [8]
CK1ε (endogenous) (from UniProt P49674 1-416) (enzyme),binds,–,–,–,–,–,–,–
B1,–,no binding,no binding,no binding,binds,binds,binds,no binding
B2,–,–,–,–,binds,binds,binds,–
B3,–,–,–,–,–,–,no binding,–
